Data reported in the supplement of paper PMC11876631.
Changes are numbered by the printed parent chain. Names and notes keep the numbering of the source. ± gives the standard deviation of the averaged measurements. Laboratory Escherichia coli strains with one amino-acid change in an essential protein, pooled on minimal glucose agar with carbenicillin or gentamicin at twice the control MIC (plus kanamycin and chloramphenicol for the plasmids), 48 h. Fold change of barcode share against drug-free plates; higher = less susceptible. Active = above 20 in both replicates (the paper's putatively resistant). '<' = one read or none on drug, '>' = one read or none on a drug-free plate. Shares are relative, so most strains fall below 1 when a few take over. Listed are strains with at least 15 reads on both drug-free plates, and hits; most hits rest on fewer reference reads. Replicate rank correlation about 0.5. Edits are read from barcodes.

B1: prmC L235A (protein)
chain: MEYQHWLREAISQLQASESPRRDAEILLEHVTGRGRTFILAFGETQLTDEQCQQLDALLTRRRDGEPIAHLTGVREFWSLPLFVSPATLIPRPDTECLVEQALARLPEQPCRILDLGTGTGAIALALASERPDCEIIAVDRMPDAVSLAQRNAQHLAIKNIHILQSDWFSALAGQQFAMIVSNPPYIDEQDPHLQQGDVRFEPLTALVAADSGMADIVHIIEQSRNALVSGGFLALEHGWQQGEAVRQAFILAGYHDVETCRDYGDNERVTLGRYYQ
B2: prmC L235Q (protein)
chain: B1 chain with A235Q
B3: prmC L98Q (protein)
chain: B1 chain with L98Q, A235L
B4: prmC L235W (protein)
chain: B1 chain with A235W
B5: prmC L98W (protein)
chain: B1 chain with L98W, A235L
B6: prmC L98A (protein)
chain: B1 chain with L98A, A235L
B7: prmC L98P (protein)
chain: B1 chain with L98P, A235L
B8: proA I31W (protein)
chain: MLEQMGIAAKQASYKLAQLSSREKNRVLEKWADELEAQSEIILNANAQDVADARANGLSEAMLDRLALTPARLKGIADDVRQVCNLADPVGQVIDGGVLDSGLRLERRRVPLGVIGVIYEARPNVTVDVASLCLKTGNAVILRGGKETCRTNAATVAVIQDALKSCGLPAGAVQAIDNPDRALVSEMLRMDKYIDMLIPRGGAGLHKLCREQSTIPVITGGIGVCHIYVDESVEIAEALKVIVNAKTQRPSTCNTVETLLVNKNIADSFLPALSKQMAESGVTLHADAAALAQLQAGPAKVVAVKAEEYDDEFLSLDLNVKIVSDLDDAIAHIREHGTQHSDAILTRDMRNAQRFVNEVDSSAVYVNASTRFTDGGQFGLGAEVAVSTQKLHARGPMGLEALTTYKWIGIGDYTIRA
B9: proA I159A (protein)
chain: B8 chain with W31I, I159A
B10: proA L273A (protein)
chain: B8 chain with W31I, L273A
B11: proA I159Q (protein)
chain: B8 chain with W31I, I159Q
B12: proA L273W (protein)
chain: B8 chain with W31I, L273W
B13: proA I159W (protein)
chain: B8 chain with W31I, I159W

Target: Escherichia coli (laboratory strain)
Assay: barcode share on antibiotic plates over drug-free plates; higher = less susceptible
Conditions: antibiotic: carbenicillin; 2× MIC (3.1 µg/mL)
Description: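 A pool of E. coli strains, each edited to carry one amino-acid change in an essential protein, was grown for 48 h on minimal glucose agar with or without antibiotic; strain barcodes were sequenced; mean of two replicates.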

| Protein | fold change of barcode share |
| --- | --- |
| B1 | 0.262 ± 0.043 |
| B2 | 0.667 ± 0.73 |
| B3 | 0.276 ± 0.01 |
| B4 | 0.964 ± 0.72 |
| B5 | 0.314 ± 0.022 |
| B6 | 0.317 ± 0.15 |
| B7 | 0.399 ± 0.0091 |
| B8 | 0.309 ± 0.15 |
| B9 | 0.591 ± 0.1 |
| B10 | 0.448 ± 0.06 |
| B11 | 0.657 ± 0.2 |
| B12 | 0.397 ± 0.012 |
| B13 | 0.354 ± 0.035 |

Same assay, conditions: antibiotic: gentamicin; 2× MIC (MIC 0.45 µg/mL)

| Protein | fold change of barcode share |
| --- | --- |
| B1 | < 0.00423 |
| B2 | < 0.015 |
| B3 | 0.0063 ± 0.005 |
| B4 | < 0.00784 |
| B5 | 0.00754 ± 0.0024 |
| B6 | 0.00286 ± 0.0025 |
| B7 | 0.00728 ± 0.00022 |
| B8 | 0.012 ± 0.00099 |
| B9 | 0.00801 ± 0.0002 |
| B10 | 0.00405 ± 0.0022 |
| B11 | 0.00753 ± 0.0056 |
| B12 | 0.00738 ± 0.0024 |
| B13 | 0.00499 ± 0.00071 |
